Screen size: about 370,000 compounds; about 150 (0.041%) were called active. Inconclusive means that the source gave no clear call. Such entries were picked first, then a sample of the others. Calls follow the shape of the dose curve; as a rule, active = well fitted inhibition curve with a large enough effect; inconclusive = small, poorly fitted or top-dose-only effect; inactive = flat fitted curve, though single readings scatter. No potency is given beside an inconclusive call; the fits are too rough.
The compounds below were run against Beta-lactamase (Escherichia coli (strain K12)) (UniProt P00811) (assay: qHTS Inhibitors of AmpC Beta-Lactamase (assay with detergent)). Conditions: AmpC hydrolysis of nitrocefin, absorbance 480 nm, 0.01% Triton; series mostly up to 114 µM.
Chain of UniProt P00811 (P00811 whole entry, looked up): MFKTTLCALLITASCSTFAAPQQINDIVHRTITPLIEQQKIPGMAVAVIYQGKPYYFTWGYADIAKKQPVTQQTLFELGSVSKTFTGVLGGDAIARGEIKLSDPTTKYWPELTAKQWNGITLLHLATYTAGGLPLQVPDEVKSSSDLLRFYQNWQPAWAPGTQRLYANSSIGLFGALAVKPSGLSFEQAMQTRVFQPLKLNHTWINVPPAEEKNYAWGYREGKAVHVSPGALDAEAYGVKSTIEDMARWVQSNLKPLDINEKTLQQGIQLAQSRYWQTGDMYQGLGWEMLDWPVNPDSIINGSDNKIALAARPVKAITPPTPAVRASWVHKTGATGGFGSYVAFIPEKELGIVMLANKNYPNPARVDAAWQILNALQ
Summary of the method: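 AmpC (5.3 nM in the dispensed reagent) in 20 mM phosphate pH 7.0 with 0.01% (detergent screen) or 0.0001% Triton X-100 was preincubated with compounds for 15 min at room temperature. Nitrocefin was then added from an 800 uM solution, and hydrolysis was followed at 480 nm.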
Also: nearly all actives have a fitted effect of over 25% in size.
Potency is read from the fitted curve at half-maximal effect; tags tell the direction and shape of the fitted curve.

SMILES	Potency
COc1cc(CNCc2ccccn2)ccc1OCc1cccc(Cl)c1	inactive
CC1CCN(CC(=O)c2ccccc2Cl)CC1	inactive
O=C(OCn1ncc(Br)c(Br)c1=O)c1ccc(F)cc1	inactive
CC(=O)c1cc(C(=O)N2CCc3c([nH]c4ccccc34)C2C2CCCCC2)[nH]n1 (stereo not given)	inconclusive [inhibitor, single point]
O=C(N/N=C/c1ccc([N+](=O)[O-])s1)c1ccccc1	inactive
CC(Oc1cccc(Cl)c1)C(=O)N(C)CC(=O)Nc1ccc(N2CCOCC2)cc1 (stereo not given)	inconclusive [inhibitor, full curve, poor fit]
Fc1ccc(COc2ccccc2C(=S)N2CCCC2)cc1	inconclusive [inhibitor, full curve, poor fit]
CCc1nc2ccccc2n1CCC(C)C	inconclusive [inhibitor, partial curve]
O=C(c1ccco1)N1CCN(S(=O)(=O)c2ccc(Cl)cc2)CC1	inconclusive [inhibitor, partial curve, poor fit]
COc1ccccc1OCC(=O)N(Cc1cccs1)C1CCS(=O)(=O)C1 (stereo not given)	inconclusive [inhibitor, single point]
Cc1ccc(OC(C)C(=O)O)cc1C (stereo not given)	inconclusive [inhibitor, partial curve, poor fit]
Cc1ccc(S(=O)(=O)c2nc(-c3cccs3)oc2SCC(=O)Nc2cc(C)cc(C)c2)cc1	inconclusive [inhibitor, partial curve, poor fit]
O=S(=O)(c1ccccc1F)N1CCN(CCc2ccccc2)CC1	inconclusive [inhibitor, partial curve]
CCNC(=S)N(Cc1ccc(OC)cc1)C1CC(=O)N(c2ccc(OCC)cc2)C1=O (stereo not given)	inconclusive [inhibitor, full curve]
Nc1nc(-c2ccccn2)nc(N)c1Cc1ccc(Cl)cc1Cl	inconclusive [inhibitor, full curve, poor fit]
COc1ccc(NC(=O)N2CCCC2C(=O)NC2CCCC2)cc1 (stereo not given)	inconclusive [inhibitor, single point]
Cc1cc(OCc2cc(C(=O)NC(C)c3c(C)nn(C)c3C)no2)cc(C)c1Cl (stereo not given)	inconclusive [inhibitor, partial curve, poor fit]
Cn1c(=O)[nH]c(=O)c2c1[nH]c(=S)n2Cc1ccc(Cl)cc1	inconclusive [inhibitor, partial curve, poor fit]
Cc1cccc(-n2c(Cc3cc(=O)[nH]c(=O)[nH]3)nnc2SC(C)C)c1	inconclusive [inhibitor, full curve, poor fit]
CC(C)CN(C(=O)COC(=O)CNC(=O)c1sc2ccccc2c1Cl)C1CCS(=O)(=O)C1 (stereo not given)	inconclusive [inhibitor, single point]
COC(=O)c1onc(-c2c(OC)cc(OC)cc2OC)c1C(=O)OC	inconclusive [inhibitor, partial curve, poor fit]
COc1ccc(C(O)(CCN2CCCCC2)C2CCCCC2)cc1 (stereo not given)	inconclusive [inhibitor, full curve]

SMILES	Potency
Cc1cccc(NC(=O)NN2CCN(C)CC2)c1C	inconclusive [inhibitor, full curve, poor fit]
Cc1ccc(Nc2c3c(nc4nc(-c5cccs5)nn24)CCCC3)cc1F	inconclusive [inhibitor, partial curve, poor fit]
O=C(O)C(=O)/C(=C\c1ccccc1)c1ccc2ccccc2n1	inactive
C=CCn1c(-c2csc(-c3ccc(OC)c(OC)c3)n2)n[nH]c1=S	inconclusive [inhibitor, full curve]
NC(=O)CSc1nnc(-c2ccoc2)o1	inconclusive [inhibitor, partial curve, poor fit]
CC(=O)Nc1cc(-c2ccc(Cl)cc2)[nH]n1	inactive
CCOc1ccc(C(=O)C(C)OC(=O)Cn2cnc3c2c(=O)n(C)c(=O)n3C)cc1 (stereo not given)	inconclusive [inhibitor, full curve]
CSCCC(NC(=O)c1ccccc1Cl)C(=O)Nc1ccncc1 (stereo not given)	inconclusive [inhibitor, full curve, poor fit]
O=C(CN1CCCCC1)Nc1cccc(Br)c1	inconclusive [inhibitor, single point]
CCOC(=O)C1=C(CCl)NC(=O)NC1c1ccc2c(c1)OCO2 (stereo not given)	inconclusive [inhibitor, full curve, poor fit]
Cc1cc(NS(=O)(=O)c2cccc([N+](=O)[O-])c2)no1	inconclusive [inhibitor, partial curve, poor fit]
O=C(NC(=S)NCCc1ccccc1)C1CCCCC1	inconclusive [inhibitor, full curve, poor fit]
O=C(OCc1ccc(Cl)c(Cl)c1)c1cnccn1	inconclusive [inhibitor, full curve, poor fit]
CCOC(=O)C1CCN(CCC(=O)Nc2cccc(Cl)c2C)CC1	inconclusive [inhibitor, partial curve, poor fit]
Cc1ccc(C[C@@H](NS(=O)(=O)c2ccc(C(=O)O)cc2)C(=O)O)cc1	inactive
COc1cc2[nH]ccc(=O)c2cc1OC	inconclusive [inhibitor, full curve, poor fit]
CN(C)CCN1C(=O)c2ccccc2C1=O	inactive
CCOC(=O)c1oc2ccccc2c1NC(=O)C1CCCCC1	inconclusive [inhibitor, single point]
Cn1c(=O)c(C(=O)NCc2ccc(Cl)cc2)c(O)c2ccccc21	inconclusive [inhibitor, full curve, poor fit]
NC(=O)COC(=O)c1ccccc1OCc1ccc(Cl)cc1	inconclusive [inhibitor, full curve, poor fit]
COC(=O)CCC(=O)COc1ccc(OC)cc1C#N	inconclusive [inhibitor, full curve, poor fit]
O=C(COC(=O)CCC(=O)c1ccc(F)cc1)NCc1ccco1	inconclusive [inhibitor, full curve, poor fit]

SMILES	Potency
CCSCc1nnc(SCC(=O)Nc2nc3ccccc3s2)n1C	inconclusive [inhibitor, full curve, poor fit]
CCOC(=O)CSc1nnc(CNC(=O)c2cccs2)n1-c1cc(OC)ccc1OC	inconclusive [inhibitor, partial curve, poor fit]
CCOC(=O)c1sc2nc3c(SCC(=O)O)cc(C(=O)c4ccccc4O)cn3c(=O)c2c1C	inconclusive [inhibitor, full curve, poor fit]
O=C1CN(C(=O)CCCc2c[nH]c3ccccc23)c2ccccc2N1	inconclusive [inhibitor, full curve, poor fit]
COc1ccc(-n2c(Cc3cccn3C)nnc2SCC(=O)N2CCCC2)cc1	inconclusive [inhibitor, full curve, poor fit]
O=C(NNC1CC(=O)N(c2ccccc2)C1=O)c1ccc(COc2ccccc2Cl)o1 (stereo not given)	inconclusive [inhibitor, full curve, poor fit]
CC(=O)c1ccc(NC(=O)COC(=O)c2ccccc2Sc2ccccc2C#N)cc1	inconclusive [inhibitor, single point]
COc1ccc(/C=C/C(=O)Nc2cccc(S(=O)(=O)NC3=NCCCCC3)c2)c(OC)c1	inconclusive [inhibitor, single point]
CCC1C(O)=C(c2ccccn2)C(=N)N1c1ccccc1 (stereo not given)	inconclusive [inhibitor, full curve, poor fit]
NC(=O)c1nc[nH]c1C(=O)Nc1cccc(C(F)(F)F)c1	inactive
O=C1NC(=S)S/C1=C\c1ccc(SCc2ccco2)o1	inconclusive [inhibitor, partial curve]
O=S(=O)(c1cccs1)N1CCN(c2ccccn2)CC1	inconclusive [inhibitor, full curve, poor fit]
COc1cc2c(cc1OC)-c1cc(Nc3ccc4c(c3)OCCO4)nc(=O)n1CC2	inactive
Cc1cccc(/C=N/NC(=O)CN2CCCCCCC2)c1	inconclusive [inhibitor, partial curve, poor fit]
Cc1ccc(Nc2c(-c3ccc(N4CCOCC4)cc3)nc3cccc(C)n23)cc1	inactive
COc1cccc(/C=N/NC(=O)c2csc(-n3nc(C)cc3C(F)(F)F)n2)c1	inconclusive [inhibitor, full curve, poor fit]
O=C(CSc1ccccc1)NCC(c1ccco1)N1CCCCC1 (stereo not given)	inconclusive [inhibitor, single point]
CSc1ccccc1OCc1cc(C(=O)N2CCN3CCCC3C2)no1 (stereo not given)	inactive
CCN=C(Nc1ccc2c(c1)OCO2)SC1CC(=O)N(c2ccc(OC)cc2)C1=O (stereo not given)	inconclusive [inhibitor, full curve, poor fit]
O=C(COC(=O)C1CC1)Nc1nc(-c2ccc(F)c(F)c2)cs1	inconclusive [inhibitor, partial curve, poor fit]
COc1cccc(NC(=O)CCc2nnc3n(Cc4ccccc4Cl)c(=O)c4ccccc4n23)c1	inactive
